Reference: the antibiotic and cytotoxicity screens of Wong et al. (2023)
The other results are listed elsewhere or left out.

Tested on: HepG2
Assay: cytotoxicity call (relative viability < 0.9)
Details: 10 µM

SMILES | cytotoxicity call
COc1cccc(S(=O)(=O)N2C[C@H](O)COC[C@H]3O[C@@H](CC(=O)N4CCOCC4)CC[C@@H]32)c1 | inactive
C[C@H]1CN([C@@H](C)CO)C(=O)c2cccc(NC(=O)c3ccc(-c4nccs4)cc3)c2O[C@@H]1CN(C)C(=O)Nc1ccc(C(F)(F)F)cc1 | inactive
C[C@@H]1CCCCO[C@@H](CN(C)C)[C@H](C)CN([C@@H](C)CO)C(=O)c2cc(NC(=O)Nc3cccc4ccccc34)ccc2O1 | inactive
C[C@@H]1CCCCO[C@H](CN(C)Cc2ccc(C(F)(F)F)cc2)[C@H](C)CN([C@H](C)CO)C(=O)c2cc(NC(=O)C3CCCCC3)ccc2O1 | inactive
C[C@@H]1CN([C@H](C)CO)C(=O)Cc2cc(NC(=O)Nc3ccccc3)ccc2O[C@H]1CN(C)Cc1ccc(C(=O)Nc2ccccc2N)cc1 | inactive
COCCCOc1cc(C[C@@H](C[C@H](N)[C@@H](O)C[C@H](C(=O)NCC(C)(C)C(N)=O)C(C)C)C(C)C)ccc1OC | inactive
COc1ccc(CN(C)C[C@H]2OCCCC[C@@H](C)Oc3ccc(NC(=O)CCC(F)(F)F)cc3C(=O)N([C@H](C)CO)C[C@@H]2C)cc1 | inactive
CN(C)CCCNC(=O)C[C@@H]1C=C[C@@H](NS(=O)(=O)c2ccccc2)[C@H](CO)O1 | inactive
COc1ccc(NC(=O)N(C)C[C@H]2OCc3cn(nn3)CCCC(=O)N([C@H](C)CO)C[C@H]2C)c(OC)c1 | inactive
COc1ccc(S(=O)(=O)N(C)C[C@@H]2Oc3ccc(NC(=O)Nc4c(C)noc4C)cc3C(=O)N([C@@H](C)CO)C[C@H]2C)cc1 | inactive
O=C(C[C@H]1C=C[C@@H](NC(=O)Cc2ccccn2)[C@H](CO)O1)NCCCN1CCOCC1 | inactive
CC(/C=C/C(=O)NO)=C\c1ccccc1OCc1cn(-c2cccc(N(S(=O)(=O)c3ccc(C)cc3)S(=O)(=O)c3ccc(C)cc3)c2)nn1 | active
CC1(C)O[C@@]2(C)CC[C@@H]1C[C@@H]2O[C@H]1O[C@@H](CO)[C@@H](O)[C@@H](O)[C@@H]1O | inactive
C[C@@H]1CN([C@@H](C)CO)C(=O)c2cccc(NC(=O)Nc3ccc(F)cc3)c2O[C@@H]1CN(C)CC1CCCCC1 | inactive
C[C@H](CO)N1C[C@H](C)[C@H](CN(C)CC2CC2)OCCCC[C@H](C)Oc2ccc(NC(=O)Nc3cccc4ccccc34)cc2C1=O | inactive
COc1ccccc1S(=O)(=O)N(C)C[C@H]1OCc2cn(nn2)CCCC(=O)N([C@@H](C)CO)C[C@@H]1C | inactive
C[C@H](CO)N1C[C@H](C)[C@H](CN(C)Cc2ccc(C(F)(F)F)cc2)Oc2ccc(NC(=O)Cc3ccccc3)cc2C1=O | inactive
CC(C)NC(=O)Nc1ccc2c(c1)C(=O)N([C@H](C)CO)C[C@H](C)[C@@H](CN(C)C(=O)Nc1ccc(C(F)(F)F)cc1)OCCCC[C@H](C)O2 | inactive
Cc1noc(C)c1S(=O)(=O)N(C)C[C@@H]1Oc2ccc(NC(=O)CCC(F)(F)F)cc2CC(=O)N([C@H](C)CO)C[C@@H]1C | inactive
CC(C)NC(=O)N(C)C[C@@H]1Oc2ccc(NC(=O)CCCN(C)C)cc2C(=O)N([C@@H](C)CO)C[C@H]1C | inactive

SMILES | cytotoxicity call
C[C@@H]1CN([C@H](C)CO)C(=O)c2cccc(NC(=O)Nc3ccccc3)c2O[C@@H]1CN(C)Cc1ccc(Cl)c(Cl)c1 | inactive
COc1ccc(S(=O)(=O)Nc2ccc3c(c2)CC(=O)N([C@@H](C)CO)C[C@H](C)[C@H](CN(C)C(=O)Nc2c(C)noc2C)O3)cc1 | inactive
C[C@H](CO)N1C[C@H](C)[C@@H](CN(C)Cc2ccccn2)Oc2ncc(C#Cc3ccc(F)cc3)cc2C1=O | inactive
CCc1c(C)[nH]c2c(C#N)cnn2c1=O | inactive
C[C@@H]1CN([C@@H](C)CO)C(=O)c2cc(NC(=O)Nc3ccc4c(c3)OCO4)ccc2O[C@@H]1CN(C)S(=O)(=O)c1cn(C)cn1 | inactive
COc1ccc(S(=O)(=O)N(C)C[C@H]2OCc3cn(nn3)CCCC(=O)N([C@@H](C)CO)C[C@@H]2C)cc1 | inactive
C[C@H]1CCCCO[C@H](CN(C)C(=O)Cc2ccccc2)[C@@H](C)CN([C@@H](C)CO)C(=O)c2cc(NS(=O)(=O)c3ccc(F)cc3)ccc2O1 | inactive
CNC[C@@H]1OCCCC[C@@H](C)Oc2ccc(NS(=O)(=O)c3c(C)noc3C)cc2C(=O)N([C@H](C)CO)C[C@@H]1C | inactive
C[C@@H]1COC(=O)[C@H](Cc2ccc(F)cc2)CC=CC[C@@H](CC(=O)N(CCO)Cc2ccccc2)C(=O)N1 | inactive
C[C@H]1CN([C@@H](C)CO)C(=O)CCCn2cc(nn2)CO[C@H]1CN(C)C(=O)Nc1cccc2ccccc12 | inactive
O=C1O[C@H](c2ccccc2)[C@H](c2ccccc2)N2[C@H]1[C@@H](C(=O)N1CCCCCCC1)[C@]1(C(=O)Nc3ccccc31)[C@H]2c1ccc(O)cc1 | inactive
Cc1ccccc1S(=O)(=O)N1C[C@@H](O)COC[C@@H]2O[C@H](CC(=O)NCCc3ccncc3)CC[C@H]21 | inactive
CCO[C@@H]1OC(=O)C[C@@H]1NC(=O)[C@@H]1CCCN1C(=O)[C@@H](NC(=O)c1ccc(N)c(Cl)c1)C(C)(C)C | inactive
O=S(=O)([O-])NC1CCCCC1.[Na+] | inactive
CO[C@H]1CN(C)C(=O)c2cc(NC(=O)Nc3cccc(F)c3)ccc2OC[C@@H](C)N(C(=O)Nc2c(C)noc2C)C[C@H]1C | inactive
C[C@@H]1CN([C@H](C)CO)C(=O)Cc2cc(NC(=O)Cc3cn(C)c4ccccc34)ccc2O[C@@H]1CN(C)S(=O)(=O)c1cn(C)cn1 | inactive
C[C@@H]1CN([C@H](C)CO)C(=O)Cc2cc(NC(=O)Cn3cnnn3)ccc2O[C@@H]1CN(C)Cc1ccc(-c2ccccc2)cc1 | inactive
C[C@H](CO)N1C[C@H](C)[C@@H](CN(C)C(=O)Nc2ccc3c(c2)OCO3)OCCCC[C@H](C)Oc2ccc(NC(=O)Nc3ccc(C(F)(F)F)cc3)cc2C1=O | inactive
C[C@H](CO)N1C[C@H](C)[C@H](CN(C)S(C)(=O)=O)Oc2ccc(NS(=O)(=O)c3ccc(Cl)cc3)cc2CC1=O | inactive
C[C@@H]1CN([C@H](C)CO)C(=O)c2cccc(NS(=O)(=O)c3cn(C)cn3)c2O[C@H]1CN(C)Cc1ccncc1 | inactive
